This is an account of results in PubChem BioAssay (NCI).

The structures appear in SMILES notation. Several values for one entry are separate records, joined by “and”; a condition that tells them apart may be missing. Identical values can stand only once.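 Dose response: 5 concentrations. Exposure: 48 h. Format: 96-well plates. Endpoint: linear interpolation; highest concentration if not reached. At the GI50, growth is halved. TGI: total growth inhibition.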

The test system of this assay is NCI-H322M lung. The assay can be described thus: NCI-60 cell line screen, 48 h.
Compound `CCOC(=O)C1=C(C)N(NC(=O)Nc2ccccc2)C2(N)N(NC(=O)Nc3ccccc3)C(C)=C(C(=O)OCC)C12C(=O)OCC` (stereo unspecified) came in with a TGI greater than 100 µM.

`O=C(O)C(Cl)Cl`: the GI50 was 5970 µM and > 10000 µM; the TGI was greater than 10000 µM.

In the case of `NCCNCCNCCN`, the GI50 was greater than 100 µM and the TGI is greater than 100 µM.

`Cc1cc(Nc2ccc(C)c(Cl)c2)n2nc(C(F)(F)F)nc2n1`: the GI50 is 38 µM and the TGI is greater than 100 µM.

Take `CC1=C/C(=N\NC(N)=S)C(C(O)(C(F)(F)F)C(F)(F)F)C(C)(C)C1` (stereo unspecified): the TGI is greater than 10 µM.

Regarding `Cc1nn(C(=O)Cc2ccccc2)c2c1C(c1ccccc1)SC(N)=N2` (stereo unspecified), the TGI is greater than 100 µM.

For `COc1ccc(C(C)NNC(=O)c2ccncc2)cc1OC` (stereo unspecified), the TGI was greater than 100 µM.

In the case of `O=C(Nc1nn2c(-c3cc(C(F)(F)F)cc(C(F)(F)F)c3)nnc2s1)C1CCCC1`, the GI50 is 0.705 µM and the TGI was greater than 30.3 µM.

For the compound `O=C1c2ccccc2C(=O)c2c(/C=C\N3CCCCC3)ccnc21`, the TGI is 6.9 µM.

For the compound `CON(C)C(=O)C(Cc1ccccc1)NC(=O)OCc1ccccc1` (stereo unspecified), the TGI was greater than 100 µM.

The compound `Cc1cc(OC(=O)Nc2cccc3ccccc23)c(C(C)C)cc1C(=S)Nc1ccccc1` showed a TGI of 60.7 µM.

As for `CN(C)CC(O)c1ccc(/C=C/c2ccc(Cl)cc2)cc1` (stereo unspecified), the GI50 was 1.53 µM and the TGI came out at 3.16 µM.

As to `CC(=O)CC1CCC(=O)/C=C/C(=O)OC(CC(C)=O)CCC(=O)/C=C/C(=O)O1` (stereo unspecified), the TGI amounted to 37.7 µM.

The compound `O=C1c2sc(-c3ccc(Cl)cc3)cc2-n2cccc21` gave a TGI greater than 100 µM.

The compound `C[N+]12C=CC=C1C(N1CCCC1)c1scc(-c3ccc(Br)cc3)c12` (stereo unspecified) had a TGI greater than 100 µM.

With `COc1ccc(Cn2c(Br)c3c(c2Br)-c2nc(N)sc2CC3)cc1`, the GI50 is 8.2 µM and the TGI came out at 35.3 µM.

`COc1ccc(C(c2cc(OC)c(OC)c(OC)c2)n2cncn2)cc1O` (stereo unspecified): the GI50 was 0.696 µM and the TGI is greater than 100 µM.

With `CCOC(=O)C1Sc2ccccc2N=C1C` (stereo unspecified), the TGI was greater than 100 µM.

For `CCN(CC)CCCNC(=O)c1cc(-c2nccn2C)nc2ccccc12`, the TGI was greater than 100 µM.

`O=C(O)C1C2c3ccccc3C(c3ccccc32)C1C(=O)NCC1CC1` (stereo unspecified) gave a TGI greater than 100 µM.

Turning to `CCCCCCOc1ccc(/C=N/Nc2cc(C)nc3ccc(Cl)cc23)cc1`, the GI50 is 1.7 µM and the TGI came to 3.13 µM.

`CCOC(=O)/C(=C/c1ccc(OC)cc1)N(CC)CC` showed a TGI greater than 100 µM.

`CCOC(=O)c1nnn(CCCCO)c1C(=O)OCC`: the TGI is greater than 100 µM.

Compound `O=c1c2cccnc2ncn1CCN1CCCCC1` registered a TGI greater than 100 µM.

`C=C1C(=O)O[C@@H]2/C=C(C)/C=C\[C@@H]3O[C@@]3(C)C[C@@H](O)C12` (stereo partly specified) displayed a TGI greater than 100 µM.

In turn, `C/C(=N\NC(N)=S)c1ccc2c(c1)Sc1ccccc1O2` returned a TGI greater than 100 µM.

As to `O=C1C(Br)=C(Br)C(=O)c2ccc(=O)ccc21`, the TGI is greater than 100 µM.

Turning to `O=C1/C(=C\c2ccc(Cl)cc2Cl)Sc2scc(-c3ccc(O)c(O)c3)[n+]21`, the TGI is 71.1 µM.

`CCOC(=O)C(=[N+]=[N-])C(=O)CN1C(=O)c2ccccc2C1=O` displayed a TGI greater than 100 µM.

In turn, `NC(N)=NS(=O)(=O)c1ccc(N=Nc2c(O)c(C(=O)O)cc3ccccc23)cc1` had a TGI greater than 100 µM.

Compound `COc1ccc(NC(=S)c2ccc(CN3CCCCC3)s2)cc1` displayed a TGI of 33.3 µM.

With `O=C(/C=C/c1c(O)ccc2ccccc12)c1ccc([N+](=O)[O-])cc1`, the TGI was greater than 100 µM.

With `c1ccc(-c2n(Cc3ccc4ccccc4n3)cc[n+]2Cc2ccc3ccccc3c2)cc1`, the GI50 is 2.61 µM and the TGI stood at 9.33 µM.

Consider `Cc1nc(-c2nc(C)c(C(=O)NNC(=O)C[n+]3ccccc3)s2)sc1C(=O)NNC(=O)C[n+]1ccccc1`, for which the TGI was greater than 100 µM.

On to `COc1cc(-c2nn(-c3cccc(NC(=O)c4ccccc4)c3)cc2-c2ccncc2)ccc1Cl`, for which the GI50 was 4.45 µM and the TGI was greater than 100 µM.

In turn, `O=C(O)CSc1n[nH]c(-c2ccccc2O)n1` displayed a TGI greater than 100 µM.

On to `COc1ccc(CN2C(=O)C(Cl)=C(Nc3cccc(C(F)(F)F)c3)C2=O)cc1`, for which the GI50 was 6.75 µM and the TGI was greater than 100 µM.

For `CCCCCCCCCCSC(=N)N` (tested in a mixture with another compound), the GI50 was 12.7 µM and the TGI stood at 26.1 µM.

As for `CCCCCCc1cc2cc(-c3cn4ccsc4n3)c(=O)oc2cc1O`, the TGI is greater than 100 µM.

Compound `CC(=O)OCc1ccc2c(c1)C(O)NC(=O)O2` (stereo unspecified) came in with a TGI greater than 100 µM.

The compound `Nc1nc(Cl)cc(OCC2(CO)CC=CC2)n1` returned a TGI greater than 100 µM.

As to `Cc1ccc(-c2nc(N3CCNCC3)c3oc(-c4ccc(C)cc4)nc3n2)cc1`, the GI50 is 1.78 µM and the TGI was 3.26 µM.

On to `CC(=C(c1ccc(OCCN2CCCCC2)cc1)c1ccc(OCCN2CCCCC2)cc1)c1ccc(Cl)cc1`, for which the GI50 is 0.405 µM and the TGI came to 0.745 µM.

In the case of `O=C1C(C(Nc2ccccc2)c2ccccc2)=C([O-])c2ccccc21.O=C1C(C(Nc2ccccc2)c2ccccc2)=C([O-])c2ccccc21.[Cu+2]` (stereo unspecified), the GI50 is 51.1 µM and the TGI is greater than 100 µM.

As to `CC[C@@H](c1ccc(O)c(O)c1)[C@@H](CC)c1ccc(O)c(O)c1`, the GI50 was 66.2 µM and the TGI is greater than 100 µM.

On to `CC(C)[C@@H]1NC(=O)[C@]2(C)CSC(=N2)c2ccnc(c2)CNC(=O)C[C@@H](/C=C/CCS)OC1=O`, for which the GI50 was 0.0984 µM and the TGI was determined as 3.35 µM.

Turning to `N#CSC#CCCC#CSC#N`, the TGI turned out to be 44.9 µM.

`CC(C)=C[C@H]1C[C@H](C)[C@H]2CC[C@H](C)c3c2c1c(C)c1ncoc31` showed a TGI of 39.6 µM.

With `CC1NC(=O)C(C)C(c2ccccc2)N(N=O)C1c1ccccc1` (stereo unspecified), the TGI was greater than 100 µM.

In turn, `CN1C(=O)C(=O)N2c3ccc(Cl)cc3C3(c4ccccc4)N=CC12O3` (stereo unspecified) registered a TGI of 25.6 µM.

The compound `O=c1c(F)cn(Cc2c(Cl)cccc2Cl)c(=O)n1Cc1c(Cl)cccc1Cl` yielded a TGI greater than 31.6 µM.

Regarding `O=c1[nH]c(=O)c2c3n(cc2[nH]1)CCCCC3`, the TGI is greater than 100 µM.

In the case of `Cc1ccc(NC2=C3CCCCC3OC2=O)cc1` (stereo unspecified), the GI50 is greater than 100 µM and the TGI is greater than 100 µM.

In turn, `CNC(=O)NCCCC(NC(C)=O)C(=O)NCc1ccccc1` (stereo unspecified) returned a TGI greater than 100 µM.

`C=C1c2nc3ccccc3n2C=C(c2ccc(OC)cc2)N1c1ccc(OC)cc1` had a TGI greater than 100 µM.

Compound `CCOC(=O)/C(C#N)=C/c1coc2cc(C)cc(C)c2c1=O` had a TGI greater than 100 µM.

In turn, `COc1c(CC(C)=O)ccc2c1C(=O)c1ccc(C=O)c(OC(C)=O)c1C2=O` showed a TGI of 54.7 µM.

On to `CC1(C)CC(c2c[nH]c3ccccc23)=CC2=Nc3ccccc3C21O` (stereo unspecified), for which the TGI was greater than 100 µM.

Turning to `COC(=O)[C@]12CC[C@@H](C)[C@H](C)[C@@H]1C1=CC[C@@H]3[C@@]4(C)C[C@@H](O)[C@H](O)[C@@](C)(CO)[C@@H]4[C@H](O)C[C@@]3(C)[C@]1(C)CC2`, the GI50 was 12.7 µM and the TGI turned out to be 26.7 µM.

As for `O=C(Nc1nc(=S)[nH][nH]1)C(=O)C(C(=O)c1ccc2ccccc2c1)C1OC(=O)c2ccccc21` (stereo unspecified), the TGI was 77.3 µM.

`C=C(C)C12OC1[C@@]1(C)C(=CC2=O)CCC(O)[C@@H]1C` (stereo partly specified): the TGI is 25.2 µM.

In the case of `O=S(=O)(O)c1cc(N=Nc2c(O)ccc3ccccc23)cc2c(S(=O)(=O)O)cccc12`, the TGI was greater than 100 µM.
